In the RNAGym collection of RNA variant scans (doi:10.1093/nar/gkz1192):
Read counts are not given, so values of variants with three or more changes are uncertain.

B1: CPEB3 Ribozyme (parent)
chain: UAACAGGGGGCCACAGCAGAAGCGUUCACGUCGCAGCCCCUGUCAGAUUCUGGUGAAUCUGCGAAUUCUGCUGUAUAUCUC

Variants of: B1
Experiment: self-cleavage, relative activity (ratio to wild type); higher = more cleavage; in vitro, sequencing
In short: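 After error-prone PCR and barcoding, CPEB3 ribozyme mutant libraries were transcribed with T7 RNA polymerase at 37°C for 5 hours, then given 15 min with DNase I before an EDTA stop, and they cleaved during both steps. Reverse transcription with template switching preceded Illumina sequencing. Relative activity divides a variant's cleaved/total read fraction by the unmutated ribozyme's. At least 5 reads were required per variant, and three batches were averaged.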

Variant	self-cleavage
C12U A21G U54C	1.06
C12U A21U A45C	0.12
C12U A28G A35G U41C A45C G61C U66C	0.06
C12U A28G A35U A64G U76C U80C	0.17
C12U A28G C32U U49C A77G	0.04
C12U A28G U69C	0.5
C12U A35G U41A U66C U72C	0.12
C12U A35U A45U U48A	0.17
C12U A35U U48A U51C	0.31
C12U A45G A47G	0.79
C12U A45G A65G C81U	0.56
C12U A45G U60C	1.24
C12U A75G U80C	1.29
C12U C14A U43A A45G U67C	0.12
C12U C14U A18G A47G G53A A75G	1.18
C12U C37G U43C U51G U67C C79U	0.07
C12U C38U U72C	1.3
C12U C44A U60C	0.16
C12U C50A U74A	1.29
C12U G19A A21G U26C U41C	0.06
C12U G19U A28G U72C	0.29
C12U G19U U60A	0.12
C12U G24A A64U U74G	0.14
C12U G24C U49C A57G U72C A77G	0.04

Variant	self-cleavage
C12U U25A A56G	0.06
C12U U25A U69C	0.1
C12U U25C G30C G46C A57C G63A	0.04
C12U U25C U41A U43C	0.25
C12U U25C U78C	0.16
C12U U26C A28G G36U U60A	0.13
C12U U26C A35G C38A U48C A57G U66C	0.08
C12U U26G A65G	0.09
C12U U31A U41A U67C C71U	0.06
C12U U31C A35G U48C A65C U72A	0.12
C12U U31C U41C A64U U76C A77U	0.29
C12U U31G U66A U80G	0.4
C12U U41A C50A	0.25
C12U U41A C68U	0.21
C12U U41A U51A U54C U60A U72C	0.19
C12U U41C A75G	1.23
C12U U41C U66G A77U	1.09
C12U U41C U66G U78A	1.13
C12U U43A A56G	1.13
C12U U43C A56G	0.54
C12U U43C U76A	0.82
C12U U54C U66C	0.67
C12U U54C U67C	0.31
A13C A15C A28G U31C A64U U74C	0.06

Variant	self-cleavage
A13C A15G A45U A56U	0.19
A13C A15G A64G U80C	0.57
A13C A15G U25C A45G U60A	0.35
A13C A15G U31C U51A	0.3
A13C A15U A20U	0.3
A13C A15U A28G U41G A56U A64G U80C	0.08
A13C A15U C29A U41C U66C U69C A77G	0.09
A13C A18G A35G A45U U54C U76A	0.55
A13C A18G G53C G61C	0.26
A13C A20C U31A	0.12
A13C A20G A28U U54A	0.29
A13C A20G U51A A64G U72A	0.15
A13C A21G A45U U49A C62U	0.22
A13C A21G A64U A65G	0.08
A13C A21G C27U A35G U54A C59A U67C	0.08
A13C A21G C38U U58C U74C U80C	0.08
A13C A21G U25C	0.32
A13C A21G U26C A56G U60A	0.2
A13C A28G U60C A64G C68A	0.23
A13C A35U G36U U51C A75G	0.08
A13C A45G C50U U78C	0.54
A13C A45U A56U U60C	0.06
A13C A45U U51A	0.28
A13C A47G A75G	0.89

Variant	self-cleavage
A13C A56C A65G	0.12
A13C A56G U69C U78C	0.36
A13C A56U A77U	0.46
A13C C14U U25C U48C U67C	0.1
A13C C39G A45U U58C U66A	0.13
A13C G19A G30A A45G A57G U60C	0.07
A13C G19U A20U U26C U78C U80A	0.06
A13C G22A U25C U26A U60A C71G	0.06
A13C G24A C34U U69C U78C	0.19
A13C G24A U26A A56G U66C	0.07
A13C G24A U60A	0.37
A13C G30A U43C	0.4
A13C G36A U43C A45U U66C U69A U80A	0.12
A13C G52U U58C	0.41
A13C U25C A64G U76C	0.09
A13C U26A A28G A45G U74C A75G	0.14
A13C U26C A28G U43A U48C U54A	0.1
A13C U26C A45U	0.25
A13C U26C C39A	0.19
A13C U26G U69C	0.06
A13C U31A U60C U74G A75U	0.25
A13C U31C A47G U54C U60C A65G U72A	0
A13C U31C A56G	0.26
A13C U41A U49C	0.16

Variant	self-cleavage
A13C U48A U78A	0.33
A13C U60C U66C U67G U72C	0.07
A13G A15C A28G C34U U74A A75G	0.05
A13G A15C A45U U51G A64G	0.29
A13G A15C G22A	0.47
A13G A15C G33A U41C A56U U72C	0.05
A13G A15G A18G U49C U60A	0.15
A13G A15G A20U U26C A28U A56G	0.38
A13G A15G A28C	0.36
A13G A15G A56G U60C C71U U80C	0.02
A13G A15G A56U U80C	0.51
A13G A15G C37A U41C A47G U54C	0.04
A13G A15G C38U A75U	0.16
A13G A15G C39A A56G U60A	0.22
A13G A15G C50G U51C	0.21
A13G A15G G30A U41A A56G	0.45
A13G A15G U25C U51C U78A	0.02
A13G A15G U26A U69C	0.16
A13G A15G U41G U49C A56U	0.3
A13G A15U A18U	0.44
A13G A15U A28G	0.17
A13G A15U A45G C59U U78C	0.24
A13G A15U A47G U60A	0.09
A13G A15U C17U U41C G46U	0.25

Variant	self-cleavage
A13G A15U G30A A35G	0.23
A13G A15U U25C C29U G46A	0.07
A13G A15U U31A A35U U54C A56G U60A	0.11
A13G A15U U31C C38U	0.26
A13G A15U U41A U48C	0.06
A13G A15U U43C U48C	0.39
A13G A15U U54C U80C	0.63
A13G A18C A20G C34U A65G	0.04
A13G A18C U51A G53A A65U	0.15
A13G A18G A20G U41C U80C	0.18
A13G A18G A20U A45G	0.23
A13G A18G A28G A64U	0.23
A13G A18G A57U U72C	0.11
A13G A18G U25C U60C C71A U72C	0.2
A13G A18G U26C U78C	0.34
A13G A18G U31A U72G	0.32
A13G A18G U31C U66A	0.34
A13G A18G U41C	0.29
A13G A18G U49C U72C	0.09
A13G A18G U58C A75G	0.21
A13G A18G U78C	0.17
A13G A18U A35G C71U	0.08
A13G A18U A45U	0.23
A13G A18U A45U A64U	0.11

Variant	self-cleavage
A13G A18U C37U U41C U72A U76C	0.11
A13G A18U G19C U60C U67C	0.12
A13G A18U U25C U72A	0.22
A13G A18U U54C U67C U69C	0.2
A13G A18U U69C U74C	0.22
A13G A20G A21G G22A C37A U41A A77C	0.04
A13G A20G A28G C37A U60C	0.18
A13G A20G A28U G53U U69C U74A	0.26
A13G A20G C44A	0.09
A13G A20G G22U U43A U54A	0.08
A13G A20G U25C U31A U48C U74A U80C	0.02
A13G A20G U49C U78C	0.51
A13G A20G U51A	0.63
A13G A20U A35G A47U A57G	0.18
A13G A20U C68A	0.18
A13G A20U G46A U48A	0.09
A13G A20U U25C G33U A35G U51C G70A	0.05
A13G A20U U41C A56U	0.12
A13G A21C U31G A35U	0.53
A13G A21G A28G A65U G70A	0.16
A13G A21G A28U C39A A45U A56G A65U	0.06
A13G A21G A35U	0.17
A13G A21G A45U	0.37
